Where “and” joins values, the source holds several entries; their conditions need not be identical. Equal entries are not always repeated. The whole screen tested about 110,000 compounds, of which about 230 (0.21%) showed an effect of 50% or more. The list shows a part of the results.
What follows are molecules tested against DPAP1 (Plasmodium falciparum, UniProt Q8IIJ9) (assay: primary screen, percent inhibition; read by cleavage of a fluorogenic dipeptide substrate; higher = more effect of the substance).
Parameters: species or system P. falciparum D10 trophozoite lysates; single well
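Further: 30 min substrate incubation versus DMSO and 10 µM JCP410 controls.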

Chain of DPAP1 (Q8IIJ9 whole entry, looked up): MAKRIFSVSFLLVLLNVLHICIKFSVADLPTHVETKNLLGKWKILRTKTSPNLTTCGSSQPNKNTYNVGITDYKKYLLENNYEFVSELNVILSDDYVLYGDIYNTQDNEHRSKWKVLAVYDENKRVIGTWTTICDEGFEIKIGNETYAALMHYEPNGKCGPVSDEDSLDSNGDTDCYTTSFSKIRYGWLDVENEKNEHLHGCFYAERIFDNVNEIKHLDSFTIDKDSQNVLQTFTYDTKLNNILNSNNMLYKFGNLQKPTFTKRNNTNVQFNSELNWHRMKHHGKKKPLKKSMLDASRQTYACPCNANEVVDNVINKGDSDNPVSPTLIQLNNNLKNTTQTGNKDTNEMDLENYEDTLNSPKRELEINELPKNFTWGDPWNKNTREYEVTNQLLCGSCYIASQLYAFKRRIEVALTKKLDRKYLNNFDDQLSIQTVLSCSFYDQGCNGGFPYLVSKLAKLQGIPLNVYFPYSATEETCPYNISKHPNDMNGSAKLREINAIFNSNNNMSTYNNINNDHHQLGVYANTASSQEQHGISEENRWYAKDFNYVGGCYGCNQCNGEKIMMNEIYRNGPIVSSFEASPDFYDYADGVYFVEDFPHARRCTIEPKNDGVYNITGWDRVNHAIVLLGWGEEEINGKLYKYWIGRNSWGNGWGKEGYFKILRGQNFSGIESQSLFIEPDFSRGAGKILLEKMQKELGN

Row | SMILES | % Inhibition @ 10 uM
1 | COc1ccc(C(=O)C2=C(O)C(=O)N(Cc3cccnc3)C2c2cccc(Br)c2)c(C)c1 (stereo not shown) | -1.6%
2 | CCN(CC)S(=O)(=O)c1c(Br)cc(C)cc1Br | 3.42%
3 | CC(CP(=O)(O)O)NC(=O)Cc1ccccc1 (stereo not shown) | -0.615%
4 | COCCn1c(Cc2cccn2C)nnc1SCC(=O)NC1CCCCC1 | -3.37%
5 | C=CC[n+]1c(C)c2cc(Cl)c(Cl)cc2n1C | -0.85%
6 | CN(C)CC(C)(C)CNC1CCC(c2ccccc2)CC1 (stereo not shown) | 0.472%
7 | CCOC(=O)c1[nH]cc(-c2ccccc2)c1N1CCOCC1 | 0.708%
8 | CCOc1ccccc1C(=O)Nc1ccccc1Br | -5.82%
9 | CCn1c(=O)c(C(=O)Nc2nc(-c3ccc(Cl)cc3)cs2)c(O)c2ccccc21 | -2.22%
10 | Cc1nn(-c2nc3ccccc3s2)c(O)c1-c1cc(O)c2ccccc2n1 | -4.68%
11 | CN(C1CCCCC1)S(=O)(=O)N1CCCC(C(=O)N2CCC(C(N)=O)CC2)C1 (stereo not shown) | -5.61%
12 | CCCCNC(=O)Cc1coc2ccc3ccccc3c12 | -0.473%
13 | CCc1ccc(-n2nnc(-c3nsc(NC(=O)c4ccc(OC)cc4)n3)c2C)cc1 | 1.11%
14 | O=C(O)c1cc2n(n1)C(C(F)(F)F)CC(c1ccccc1)N2 (stereo not shown) | -1.32%
15 | CCOC(=O)C1CCN(C2CC3CCC2C3)CC1 (stereo not shown) | -2.95%
16 | Cc1cccc(OCCCN2CCCC2)c1 | -0.546%
17 | O=C1OC(c2ccc(-c3ccccc3)cc2)=N/C1=C\c1coc2ccccc2c1=O | 3.64%
18 | N#CC1=C(N)Oc2cc(O)c(Cl)cc2C1c1ccccc1F (stereo not shown) | -1.25%
19 | O=C(CCn1cc(Br)cn1)Nc1ccn(Cc2ccccc2)n1 | -2.85%
20 | CCNC(=O)/C(=C\c1ccc(OC)cc1)NC(=O)c1ccccc1Br | 0.746%
21 | CCN(CC)c1ccc2c(c1)oc(=O)c1c(Cl)cc(=O)oc12 | -3.5%
22 | COc1cccc(C2Nc3ccccc3N=C3CC(C)(C)CC(O)=C32)c1 (stereo not shown) | -4.4%
23 | Cc1cc(C(=O)NCC(C)c2ccccc2)c2c(C)nn(-c3ccccc3)c2n1 (stereo not shown) | 0.44%
24 | N#Cc1c(N)nc2c(c1-c1ccsc1)CCCC2 | -2.81%
25 | CCSc1nnc(NC(=O)CSc2nc3c(c(=O)n2C)SCC3)s1 | 0.205%

Row | SMILES | % Inhibition @ 10 uM
26 | C=CCNC(=O)/C(C#N)=C/c1c(Oc2ccc(Br)cc2)nc2c(C)cccn2c1=O | -7.04%
27 | Cc1cccn2c(=O)c(/C=N/C(C)c3ccccc3)c(NC(C)c3ccccc3)nc12 (stereo not shown) | -3.63%
28 | CCC1CCCCN1CCCNc1nc2ccccc2c2nc(-c3ccccc3)nn12 (stereo not shown) | 0.981%
29 | CCN(CC)C(=O)c1sc(NC(=O)c2cc3ccccc3c(=O)o2)c(C(=O)OC(C)C)c1C | -3.13%
30 | CCCCc1ccc(-c2csc(/C(C#N)=C/c3ccco3)n2)cc1 | 4.63%
31 | Cc1ccnc(NC(=O)c2cccc(F)c2)c1 | -1.19%
32 | Cc1nc2c(oc3ccccc32)c(=O)o1 | 10.9%
33 | COc1ccc(NC(=O)c2ccc(C)o2)c(OC)c1 | 4.11%
34 | CCSc1sc(CC)cc1C(N)=O | 6.49%
35 | CCn1c2ccccc2c2nnc(NCc3ccccc3OC)nc21 | -3.73%
36 | O=C(Cn1cnc2onc(-c3ccc(F)cc3)c2c1=O)N1CCN(Cc2ccccc2)CC1 | -5.13%
37 | COc1ccc(OC)c(NC(=O)c2cncc(Br)c2)c1 | -0.884%
38 | Nc1nc(Nc2ccccc2O)nc2ccccc12 | -2.29%
39 | Cc1c2cnn(CC(=O)NC(C)C34CC5CC(CC(C5)C3)C4)c(=O)c2c(C)n1Cc1ccccc1 (stereo not shown) | -5.81%
40 | CCc1nc2ccc(C(=O)N3CCc4ccccc4C3)cc2nc1CC | -0.0785%
41 | C=CCOc1ccc(C(=O)C2=C(O)C(=O)N(CCN(CC)CC)C2c2ccc(Cl)cc2)cc1C (stereo not shown) | 3.15%
42 | O=S(=O)(c1ccccc1)N1C2C=CC(C2)C1(C(F)(F)F)C(F)(F)F (stereo not shown) | -1.72%
43 | Cc1onc(-c2ccccc2Cl)c1C(=O)NC(C)Cc1ccccc1 (stereo not shown) | -4.93%
44 | COc1ccc(N/C=C\C(=O)c2ccc3c(c2)OCO3)cc1 | 0.777%
45 | COc1ccc2c(c1OC)C(=O)N(c1cccc(/C=C/C(=O)O)c1)C2 | 7.79%
46 | CC(=O)C(C(C)=O)=C1SCC(c2ccccc2)S1 (stereo not shown) | -10.7%
47 | Cn1c(=O)c2c(nc(SCC(=O)O)n2Cc2cccc(Cl)c2)n(C)c1=O | -0.725%
48 | Cn1c(NC(=O)c2ccc(C(C)(C)C)cc2)cc(=O)n(C)c1=O | 5.26%
49 | CC(CCc1ccccc1)NCc1c(C(=O)O)[nH]c2ccccc12 (stereo not shown) | 5.09%
50 | CC1CCN(C(=O)CCc2nc(CN3CCN(C(=O)c4cc(-c5cccs5)on4)CC3)no2)CC1 | 2.96%

Row | SMILES | % Inhibition @ 10 uM
51 | COCCN1C(=O)C(O)=C(C(C)=O)C1c1ccc(Cl)cc1Cl (stereo not shown) | -3.21%
52 | CN1CCC(N2CCCCC2CO)CC1 (stereo not shown) | -3.27%
53 | CCSc1nnc2n(-c3ccccc3)c3ccccc3n12 | -2.29%
54 | N#Cc1ccc(Oc2ccccc2N2C(=O)c3ccccc3C2=O)cc1 | -3.24%
55 | NC(=O)C1CCCN(Cc2ccc(Br)cc2)C1 (stereo not shown) | -2.95%
56 | CN1CCN(C(=O)C2=CC(c3ccco3)=NS(=O)(=O)N2C)CC1 | 0.655%
57 | Cc1nn(CC(=O)NCCN2CCOCC2)c2ccccc12 | -1.11%
58 | Cc1nn(-c2ccccc2)c(C)c1-c1ccccc1O | 2.79%
59 | O=C(Cc1ccc(-c2ccccc2)cc1)N1CCN(c2ccccn2)CC1 | -0.95%
60 | CC1CCC2(C)c3c(c4ccccc4n3C)CCN2C1 (stereo not shown) | 2.05%
61 | CN1CCC(N(C)Cc2ccc(F)cc2)CC1 | -5.57%
62 | COc1ccccc1CNC1CCCCC1C (stereo not shown) | 1.13%
63 | COc1cc(-c2cc(C(F)(F)F)n3ncc(C(=O)N4CCCCCC4)c3n2)cc(OC)c1OC | 5.39% and -0.884%
64 | O=C(Nc1ccccc1)c1cccc(S(=O)(=O)N2CCN(c3ccccc3)CC2)c1 | -0.865%
65 | COC(=O)c1ccc(C(=O)OCc2nc3cc4ccccc4cc3[nH]2)cc1 | 11.8%
66 | Cc1ccc(OC(C)C(=O)Nc2ccccc2Br)cc1 (stereo not shown) | -6.57%
67 | COCc1nc2ccccc2n1CCCOc1ccccc1 | 2.73%
68 | Cc1c(C(=O)NCc2ccc3c(c2)OCO3)oc2ccc(S(=O)(=O)N3CCCCCC3)cc12 | 4.79%
69 | Cc1ccc(Cn2c(/N=C/c3ccccc3O)nc3ccccc32)cc1 | 20.3%
70 | COCCNc1nc2c(c(=O)n(Cc3ccc(F)cc3)c(=O)n2C)n1C | 0.0289%
71 | Cc1cc2c(cc1Br)NC(=O)C21C(C#N)=C(N)Oc2c1c(=O)oc1ccccc21 (stereo not shown) | -2.36%
72 | CCOC(=O)C1=C(C)N(c2ccc(OCC)cc2)C(=O)/C1=C\c1cccc2ccccc12 | 4.68%
73 | COCCCNc1nc2c(c(=O)n(C)c(=O)n2C)n1Cc1ccc(C)cc1 | -0.339%
74 | O=C(Cc1ccc(-n2c(-c3ccccc3)nc3cccnc32)cc1)NCc1ccco1 | 2.32%
75 | Cc1cccc(NC(=O)CS(=O)(=O)c2ccc3ccccc3c2)c1 | -8.48%

Row | SMILES | % Inhibition @ 10 uM
76 | O=C(c1ccccc1)c1ccc2c(c1)C(=O)N(c1ccccc1C(=O)O)C2=O | 1.65%
77 | COc1cc(OC)cc(C2C(C#N)=C(N)Oc3[nH]nc(C)c32)c1 (stereo not shown) | -2.56%
78 | O=C(COC(=O)c1ccc(Oc2ccc(O)cc2)cc1)c1ccccc1 | 9.31%
79 | NC(=O)c1cc(S(=O)(=O)N2CCCCC2)ccc1Cl | 5.06%
80 | COc1ccccc1/C=C/c1nn2c(Cc3ccccc3)nnc2s1 | 14.7%
81 | CCc1ccc(CNC(=O)CNC(=O)c2cccs2)cc1 | -4.97%
82 | O=C(OCc1ccccc1)/C(=C/C=C/c1ccccc1)NC(=O)c1ccccc1 | -6.69%
83 | O=c1oc2ccccc2cc1-c1nc(-c2cccs2)no1 | 7.52%
84 | O=C(CCNS(=O)(=O)c1ccc2nc(O)ccc2c1)NCCC1=CCCCC1 | 2.73%
85 | Cc1ccc2nc(NCc3ccc(F)cc3)c3nnnn3c2c1 | 2.42%
86 | COc1ccc(CC(=O)Nc2cccc(C)c2)cc1 | 1.28%
87 | CN1CCN(C(=O)c2oc3ccccc3c2NC(=O)c2ccco2)CC1 | -8.37%
88 | CCOc1cc2c(cc1OCC)C1C(C(=O)N3CCN(C)CC3)c3ccccc3C(=O)N1CC2 (stereo not shown) | 0.166%
89 | Cc1ccccc1-c1nc2ccccc2c(=O)o1 | 3.05%
90 | NC(=O)CSc1nc(SCC(N)=O)c2sc3nc4ccccc4n3c2n1 | -0.996%
91 | COc1cc(OC)cc(C2C(C#N)=C(N)Oc3[nH]nc(-c4ccc(F)cc4)c32)c1 (stereo not shown) | 0.777%
92 | CCOc1ccc(-n2c(C)cc(/C=C3\C(=N)N4N=C(S(=O)(=O)CC)SC4=NC3=O)c2C)cc1 | 8.11%
93 | Cc1nc2cc(-c3ccc(Cl)cc3)nn2c(C)c1CCC(=O)Nc1cccnc1 | 4.54%
94 | CCn1c(C)c(C)c2cc(C(=O)NCCCN3CCN(C)CC3)ccc21 | -10.3%
95 | Cc1nc(Nc2nc3ccccc3o2)ncc1C(=O)Nc1ccc(F)cc1 | -0.884%
96 | COc1ccccc1CNC(=O)Cc1c(C)c2ccc(O)cc2oc1=O | 0.895%
97 | COc1ccc(CN2C(=O)c3cccnc3C2=O)cc1S(=O)(=O)N1CCc2ccccc2C1 | 0.0057%
98 | CCOC(=O)N1CCN(C(=O)c2cc3c(-c4cccc(OC)c4)nn(C)c3s2)CC1 | 1.23%
99 | Cc1ccc(S(=O)(=O)N(CC(=O)N2CCCC2)c2ccc(Cl)cc2C)cc1 | -0.496%
100 | CCN(CC)C(=O)C1CCCN(Cc2ccsc2)C1 (stereo not shown) | 0.605%

Source: PMC6919601, “Identification of Plasmodium dipeptidyl aminopeptidase allosteric inhibitors by high throughput screening” (PLoS ONE, 2019)
